Data published in patent US20260274856A1, “COVALENT CEREBLON LIGANDS” (C4 THERAPEUTICS, INC., priority 2023, published 2026).

Target: CRBN(delta 1-40)/DDB1(delta BPB) (Homo sapiens, UniProt Q96SW2)
Assay: Covalent labeling of CRBN, intact protein mass spectrometry
Conditions: 15 μM protein stock, 6 h at room temperature; for % modified (15 μM): 15 μM compound; for % modified (150 μM): 150 μM compound

Compound | % modified (15 μM) | % modified (150 μM)
O=C1CCC(Oc2cccc(S(=O)(=O)F)c2)C(=O)N1 (stereo not shown) [Compound A-1, 3-((2,6-dioxopiperidin-3-yl)oxy)benzenesulfonyl fluoride] | ++++ (≥20% and <40%= ++++) | ++++ (≥20% and <40%= ++++)
O=C1CCC(N2C(=O)c3ccc(OS(=O)(=O)F)cc3C2=O)C(=O)N1 (stereo not shown) [Compound A-2, 2-(2,6-dioxopiperidin-3-yl)-1,3-dioxoisoindolin-5-yl sulfurofluoridate] | ++++ (≥20% and <40%= ++++) | ++++++ (≥60% and <80% = ++++++)
O=C1CCC(N2C(=O)c3ccc(S(=O)(=O)F)cc3C2=O)C(=O)N1 (stereo not shown) [Compound A-3, 2-(2,6-dioxo-3-piperidyl)-1,3-dioxo-isoindoline-5-sulfonyl fluoride] | + (<5% = +) | + (<5% = +)
O=C1CCC(N2Cc3ccc(S(=O)(=O)F)cc3C2=O)C(=O)N1 (stereo not shown) [Compound A-4, 2-(2,6-dioxopiperidin-3-yl)-3-oxoisoindoline-5-sulfonyl fluoride] | +++++ (≥40% and <60% = +++++) | ++++++ (≥60% and <80% = ++++++)
O=C1CCC(Oc2cccc(OS(=O)(=O)F)c2)C(=O)N1 (stereo not shown) [Compound A-5, 3-((2,6-dioxopiperidin-3-yl)oxy)phenyl sulfurofluoridate] | ++++ (≥20% and <40%= ++++) | +++++ (≥40% and <60% = +++++)
O=C1CCC(N2C(=O)c3cc(S(=O)(=O)F)cc4cccc2c34)C(=O)N1 (stereo not shown) [Compound A-6, 1-(2,6-dioxopiperidin-3-yl)-2-oxo-1,2-dihydrobenzo[cd]indole-4-sulfonyl fluoride] | ++++++ (≥60% and <80% = ++++++) | ++++++ (≥60% and <80% = ++++++)
O=C1CCC(N2C(=O)c3cc(OS(=O)(=O)F)cc4cccc2c34)C(=O)N1 (stereo not shown) [Compound A-7, 1-(2,6-dioxopiperidin-3-yl)-2-oxo-1,2-dihydrobenzo[cd]indol-4-yl sulfurofluoridate] | +++++ (≥40% and <60% = +++++) | ++++++ (≥60% and <80% = ++++++)
Cn1nc(N2CCC(=O)NC2=O)c2cccc(S(=O)(=O)F)c21 [Compound A-10, 3-(2,4-dioxotetrahydropyrimidin-1(2H)-yl)-1-methyl-1H-indazole-7-sulfonyl fluoride] | +++++ (≥40% and <60% = +++++) | +++++ (≥40% and <60% = +++++)
CN(c1cccc(S(=O)(=O)F)c1)C1CCC(=O)NC1=O (stereo not shown) [Compound A-11, 3-((2,6-dioxopiperidin-3-yl)(methyl)amino)benzenesulfonyl fluoride] | +++++ (≥40% and <60% = +++++) | ++++++ (≥60% and <80% = ++++++)
O=C1CCC(c2ccc(S(=O)(=O)F)cc2)C(=O)N1 (stereo not shown) [Compound A-12, 4-(2,6-dioxopiperidin-3-yl)benzenesulfonyl fluoride] | +++++ (≥40% and <60% = +++++) | ++++++ (≥60% and <80% = ++++++)
Cc1ccc(OC2CCC(=O)NC2=O)cc1S(=O)(=O)F (stereo not shown) [Compound A-13, 5-[(2,6-dioxo-3-piperidyl)oxy]-2-methyl-benzenesulfonyl fluoride] | ++++ (≥20% and <40%= ++++) | +++++ (≥40% and <60% = +++++)
O=C1CCN(c2ccc(S(=O)(=O)F)cc2)C(=O)N1 [Compound A-14, 4-(2,4-dioxotetrahydropyrimidin-1(2H)-yl)benzenesulfonyl fluoride] | +++++ (≥40% and <60% = +++++) | +++++++ (≥80% = +++++++)
O=C1CCN(c2ccc(OS(=O)(=O)F)cc2)C(=O)N1 [Compound A-15, 4-(2,4-dioxotetrahydropyrimidin-1(2H)-yl)phenyl sulfurofluoridate] | + (<5% = +) | + (<5% = +)
COc1ccc(OC2CCC(=O)NC2=O)cc1S(=O)(=O)F (stereo not shown) [Compound A-16, 5-[(2,6-dioxo-3-piperidyl)oxy]-2-methoxy-benzenesulfonyl fluoride] | +++++++ (≥80% = +++++++) | +++++++ (≥80% = +++++++)
Cc1cc(OC2CCC(=O)NC2=O)cc(S(=O)(=O)F)c1 (stereo not shown) [Compound A-17, 3-[(2,6-dioxo-3-piperidyl)oxy]-5-methyl-benzenesulfonyl fluoride] | ++++ (≥20% and <40%= ++++) | +++++ (≥40% and <60% = +++++)
CN(c1cccc(OS(=O)(=O)F)c1)C1CCC(=O)NC1=O (stereo not shown) [Compound A-18, 3-((2,6-dioxopiperidin-3-yl)(methyl)amino)phenyl sulfurofluoridate] | + (<5% = +) | + (<5% = +)
Cc1ccc(OC2CCC(=O)NC2=O)cc1OS(=O)(=O)F (stereo not shown) [Compound A-19, 5-((2,6-dioxopiperidin-3-yl)oxy)-2-methylphenyl sulfurofluoridate] | ++++ (≥20% and <40%= ++++) | +++++++ (≥80% = +++++++)
Cc1cc(OC2CCC(=O)NC2=O)cc(OS(=O)(=O)F)c1 (stereo not shown) [Compound A-20, 3-((2,6-dioxopiperidin-3-yl)oxy)-5-methylphenyl sulfurofluoridate] | +++ (≥10% and <20% = +++) | ++++ (≥20% and <40%= ++++)

Compound | % modified (15 μM) | % modified (150 μM)
COc1cc(OC2CCC(=O)NC2=O)cc(OS(=O)(=O)F)c1 (stereo not shown) [Compound A-21, 3-(3-fluorosulfonyloxy-5-methoxy-phenoxy)-2,6-dioxo-piperidine] | +++ (≥10% and <20% = +++) | +++++ (≥40% and <60% = +++++)
COc1cc(OC2CCC(=O)NC2=O)cc(S(=O)(=O)F)c1 (stereo not shown) [Compound A-22, 3-((2,6-dioxopiperidin-3-yl)oxy)-5-methoxybenzenesulfonyl fluoride] | ++ (≥5% and <10% = ++) | +++ (≥10% and <20% = +++)
O=C1CCC(c2cccc(OS(=O)(=O)F)c2)C(=O)N1 (stereo not shown) [Compound A-23, 3-(2,6-dioxopiperidin-3-yl)phenyl sulfurofluoridate] | + (<5% = +) | + (<5% = +)
O=C1CCC(CNc2cccc(S(=O)(=O)F)c2)C(=O)N1 (stereo not shown) [Compound A-24, 3-(((2,6-dioxopiperidin-3-yl)methyl)amino)benzenesulfonyl fluoride] | +++++ (≥40% and <60% = +++++) | ++++++ (≥60% and <80% = ++++++)
O=C1CCC(c2ccc(OS(=O)(=O)F)cc2)C(=O)N1 (stereo not shown) [Compound A-25, 4-(2,6-dioxopiperidin-3-yl)phenyl sulfurofluoridate] | + (<5% = +) | ++ (≥5% and <10% = ++)
CN1C(=O)CCC(N2C(=O)c3ccc(OS(=O)(=O)F)cc3C2=O)C1=O (stereo not shown) [Compound A-26, 2-(1-methyl-2,6-dioxopiperidin-3-yl)-1,3-dioxoisoindolin-5-yl sulfurofluoridate] | + (<5% = +) | + (<5% = +)
COc1ccc(OC2CCC(=O)NC2=O)cc1OS(=O)(=O)F (stereo not shown) [Compound A-27, 5-((2,6-dioxopiperidin-3-yl)oxy)-2-methoxyphenyl sulfurofluoridate] | + (<5% = +) | ++++++ (≥60% and <80% = ++++++)
O=C1CCC(Oc2ccc(OS(=O)(=O)F)cn2)C(=O)N1 (stereo not shown) [Compound A-28, 6-((2,6-dioxopiperidin-3-yl)oxy)pyridin-3-yl sulfurofluoridate] | + (<5% = +) | + (<5% = +)
O=C1CCC(n2c(=O)oc3c(S(=O)(=O)F)cccc32)C(=O)N1 (stereo not shown) [Compound A-29, 3-(2,6-dioxopiperidin-3-yl)-2-oxo-2,3-dihydrobenzo[d]oxazole-7-sulfonyl fluoride] | + (<5% = +) | + (<5% = +)
Cn1nc(N2CCC(=O)NC2=O)c2cccc(OS(=O)(=O)F)c21 [Compound A-30, 3-(2,4-dioxotetrahydropyrimidin-1(2H)-yl)-1-methyl-1H-indazol-7-yl sulfurofluoridate] | + (<5% = +) | ++++ (≥20% and <40%= ++++)
O=C1NC(=O)C2(Nc3ccc(S(=O)(=O)F)cc3)CC1C2 [Compound A-33, 4-((2,4-dioxo-3-azabicyclo[3.1.1]heptan-1-yl)amino)benzenesulfonyl fluoride] | + (<5% = +) | + (<5% = +)
O=C1NC(=O)C2(c3ccc(S(=O)(=O)F)cc3)CC1C2 [Compound A-34, 4-(2,4-dioxo-3-azabicyclo[3.1.1]heptan-1-yl)benzenesulfonyl fluoride] | + (<5% = +) | ++ (≥5% and <10% = ++)
O=C1CCN(c2ccc(C3CCNCC3)c(OS(=O)(=O)F)c2)C(=O)N1 [Compound A-35, 5-(2,4-dioxotetrahydropyrimidin-1(2H)-yl)-2-(piperidin-4-yl)phenyl sulfurofluoridate] | + (<5% = +) | + (<5% = +)
O=C1CCC(c2ccc(N3CCNCC3)c(OS(=O)(=O)F)c2)C(=O)N1 (stereo not shown) [Compound A-36, 5-(2,6-dioxopiperidin-3-yl)-2-(piperazin-1-yl)phenyl sulfurofluoridate] | + (<5% = +) | + (<5% = +)
O=C1NC(=O)C2(c3ccc(OS(=O)(=O)F)cc3)CC1C2 [Compound A-37, 4-(2,4-dioxo-3-azabicyclo[3.1.1]heptan-1-yl)phenyl sulfurofluoridate] | + (<5% = +) | + (<5% = +)
O=C1CCC(Oc2ccc(C3CCNCC3)c(S(=O)(=O)F)c2)C(=O)N1 (stereo not shown) [Compound A-38, 5-((2,6-dioxopiperidin-3-yl)oxy)-2-(piperidin-4-yl)benzenesulfonyl fluoride] | + (<5% = +) | + (<5% = +)
O=C1CCC(CNc2cccc(OS(=O)(=O)F)c2)C(=O)N1 (stereo not shown) [Compound A-40, 3-(((2,6-dioxopiperidin-3-yl)methyl)amino)phenyl sulfurofluoridate] | + (<5% = +) | + (<5% = +)
